# Measurements: the supplement of paper PMC8728848
# The list shows a part of the results.
# B1: 3FTT (Staphylococcus aureus), Q5HCZ5 (protein)
# chain: MTEKEKMLAEKWYDANFDQYLINERARAKDICFELNHTRPSATNKRKELIDQLFQTTTDNVSISIPFDTDYGWNVKLGKNVYVNTNCYFMDGGQITIGDNVFIGPNCGFYTATHPLNFHHRNEGFEKAGPIHIGSNTWFGGHVAVLPGVTIGEGSVIGAGSVVTKDIPPHSLAVGNPCKVVRKIDNDLPSETLNDETIK
# Experiments:
# Assay in all cases: glycan array binding signal (z-score within array); higher = stronger binding
# Details in all cases: glycan notation: IUPAC condensed, linker removed
# [1] = target: Gal(b1-4)GlcNAc(b1-2)Man(a1-3)[Gal(b1-4)GlcNAc(b1-2)Man(a1-6)]Man(b1-4)GlcNAc(b1-4)GlcNAc
# Summary of the method: (§1)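 Negative Z-scores can be read as non-binding. The Z-score is calculated within each array and then averaged across arrays of one protein sequence at different concentrations or buffers and across linkers. Arrays, 3228 in all, were curated from the Consortium for Functional Glycomics database and kept only where the protein sequence was available.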
# [2] = target: Gal(b1-4)GlcNAc(b1-2)Man(a1-3)[Gal(b1-4)GlcNAc(b1-2)Man(a1-6)]Man(b1-4)GlcNAc(b1-4)[Fuc(a1-6)]GlcNAc
# Summary of the method: as §1
# [3] = target: Gal(b1-4)GlcNAc(b1-2)Man(a1-3)[Gal(b1-4)GlcNAc(b1-2)][GlcNAc(b1-4)]Man(b1-4)GlcNAc(b1-4)GlcNAc
# Summary of the method: as §1
# [4] = target: Gal(b1-4)GlcNAc(b1-2)Man(a1-3)[GlcNAc(b1-2)Man(a1-6)]Man(b1-4)GlcNAc(b1-4)GlcNAc
# Summary of the method: as §1
# [5] = target: Gal(b1-4)GlcNAc(b1-2)Man(a1-3)[Man(a1-6)]Man(b1-4)GlcNAc(b1-4)GlcNAc
# Summary of the method: as §1
# [6] = target: Gal(b1-4)GlcNAc(b1-2)Man(a1-6)Man(b1-4)GlcNAc(b1-4)GlcNAc
# Summary of the method: as §1
# [7] = target: Gal(b1-4)GlcNAc(b1-2)Man(a1-6)[GlcNAc(b1-2)Man(a1-3)]Man(b1-4)GlcNAc(b1-4)GlcNAc
# Summary of the method: as §1
# [8] = target: Gal(b1-4)GlcNAc(b1-2)Man(a1-6)[Man(a1-3)]Man(b1-4)GlcNAc(b1-4)GlcNAc
# Summary of the method: as §1
# [9] = target: Gal(b1-4)GlcNAc(b1-2)[Gal(b1-4)GlcNAc(b1-4)]Man(a1-3)[Gal(b1-4)GlcNAc(b1-2)Man(a1-6)]Man(b1-4)GlcNAc(b1-4)GlcNAc
# Summary of the method: as §1
# [10] = target: Gal(b1-4)GlcNAc(b1-2)[Gal(b1-4)GlcNAc(b1-4)]Man(a1-3)[Gal(b1-4)GlcNAc(b1-2)[Gal(b1-4)GlcNAc(b1-6)]Man(a1-6)]Man(b1-4)GlcNAc(b1-4)GlcNAc
# Summary of the method: as §1
# [11] = target: Gal(b1-4)GlcNAc(b1-2)[Gal(b1-4)GlcNAc(b1-4)]Man(a1-3)[GlcNAc(b1-4)][Gal(b1-4)GlcNAc(b1-2)Man(a1-6)]Man(b1-4)GlcNAc(b1-4)GlcNAc
# Summary of the method: as §1
# [12] = target: Gal(b1-4)GlcNAc(b1-2)[Gal(b1-4)GlcNAc(b1-4)]Man(a1-3)[GlcNAc(b1-4)][Gal(b1-4)GlcNAc(b1-2)[Gal(b1-4)GlcNAc(b1-6)]Man(a1-6)]Man(b1-4)GlcNAc(b1-4)GlcNAc
# Summary of the method: as §1
# [13] = target: Gal(b1-4)GlcNAc(b1-2)[Gal(b1-4)GlcNAc(b1-6)]Man(a1-6)[Gal(b1-4)GlcNAc(b1-2)Man(a1-3)]Man(b1-4)GlcNAc(b1-4)GlcNAc
# Summary of the method: as §1
# [14] = target: Gal(b1-4)GlcNAc(b1-2)[Gal(b1-4)GlcNAc(b1-6)]Man(a1-6)[GlcNAc(b1-4)][Gal(b1-4)GlcNAc(b1-2)Man(a1-3)]Man(b1-4)GlcNAc(b1-4)GlcNAc
# Summary of the method: as §1
# [15] = target: Gal(b1-4)GlcNAc(b1-3)Gal(b1-3)GlcNAc
# Summary of the method: as §1
# [16] = target: Gal(b1-4)GlcNAc(b1-3)Gal(b1-4)Glc
# Summary of the method: as §1
# [17] = target: Gal(b1-4)GlcNAc(b1-3)Gal(b1-4)GlcNAc
# Summary of the method: as §1
# [18] = target: Gal(b1-4)GlcNAc(b1-3)Gal(b1-4)GlcNAc(b1-3)Gal(b1-4)GlcNAc
# Summary of the method: as §1
# [19] = target: Gal(b1-4)GlcNAc(b1-3)Gal(b1-4)[Fuc(a1-3)GlcNAc(b1-6)]Gal(b1-4)Glc
# Summary of the method: as §1
# [20] = target: Gal(b1-4)GlcNAc(b1-3)Gal(b1-4)[Fuc(a1-3)]GlcNAc(b1-3)Gal(b1-4)[Fuc(a1-3)]GlcNAc
# Summary of the method: as §1
# [21] = target: Gal(b1-4)GlcNAc(b1-3)GalNAc
# Summary of the method: as §1
# [22] = target: Gal(b1-4)GlcNAc(b1-3)[Gal(b1-4)GlcNAc(b1-6)]Gal(b1-4)GlcNAc
# Summary of the method: as §1
# [23] = target: Gal(b1-4)GlcNAc(b1-3)[Gal(b1-4)GlcNAc(b1-6)]GalNAc
# Summary of the method: as §1
# [24] = target: Gal(b1-4)GlcNAc(b1-3)[GlcNAc(b1-6)]Gal(b1-4)GlcNAc
# Summary of the method: as §1
# [25] = target: Gal(b1-4)GlcNAc(b1-6)Gal(b1-4)GlcNAc
# Summary of the method: as §1
# [26] = target: Gal(b1-4)GlcNAc(b1-6)GalNAc
# Summary of the method: as §1
# [27] = target: Gal(b1-4)GlcNAc(b1-6)[Gal(b1-3)]GalNAc
# Summary of the method: as §1
# Gal(b1-6)Gal = target: Gal(b1-6)Gal
# Summary of the method: as §1
# Gal3S(b1-3)GalNAc = target: Gal3S(b1-3)GalNAc
# Summary of the method: as §1
# Gal3S(b1-3)GlcNAc = target: Gal3S(b1-3)GlcNAc
# Summary of the method: as §1
# [28] = target: Gal3S(b1-3)[Fuc(a1-4)]GlcNAc
# Summary of the method: as §1
# Gal3S(b1-4)Glc = target: Gal3S(b1-4)Glc
# Summary of the method: as §1
# Gal3S(b1-4)Glc6S = target: Gal3S(b1-4)Glc6S
# Summary of the method: as §1
# Gal3S(b1-4)GlcNAc = target: Gal3S(b1-4)GlcNAc
# Summary of the method: as §1
# Gal3S(b1-4)GlcNAc6S = target: Gal3S(b1-4)GlcNAc6S
# Summary of the method: as §1
# [29] = target: Gal3S(b1-4)[Fuc(a1-3)]Glc
# Summary of the method: as §1
# [30] = target: Gal3S(b1-4)[Fuc(a1-3)]Glc6S
# Summary of the method: as §1
# Gal3S4S(b1-4)GlcNAc = target: Gal3S4S(b1-4)GlcNAc
# Summary of the method: as §1
# Gal3S6S(b1-4)GlcNAc = target: Gal3S6S(b1-4)GlcNAc
# Summary of the method: as §1
# Gal3S6S(b1-4)GlcNAc6S = target: Gal3S6S(b1-4)GlcNAc6S
# Summary of the method: as §1
# Gal4S(b1-4)GlcNAc = target: Gal4S(b1-4)GlcNAc
# Summary of the method: as §1
# Gal4S6S(b1-4)GlcNAc = target: Gal4S6S(b1-4)GlcNAc
# Summary of the method: as §1
# Gal6S(b1-3)GlcNAc = target: Gal6S(b1-3)GlcNAc
# Summary of the method: as §1
# Gal6S(b1-3)GlcNAc6S = target: Gal6S(b1-3)GlcNAc6S
# Summary of the method: as §1
# Gal6S(b1-4)Glc = target: Gal6S(b1-4)Glc
# Summary of the method: as §1
binder,measurement,setting,value
B1,glycan array binding signal (z-score),[1],-0.246
same,glycan array binding signal (z-score),[2],0.077
same,glycan array binding signal (z-score),[3],-0.1
same,glycan array binding signal (z-score),[4],-0.216
same,glycan array binding signal (z-score),[5],-0.261
same,glycan array binding signal (z-score),[6],0.153
same,glycan array binding signal (z-score),[7],-0.191
same,glycan array binding signal (z-score),[8],0.017
same,glycan array binding signal (z-score),[9],-0.288
same,glycan array binding signal (z-score),[10],-0.262
same,glycan array binding signal (z-score),[11],-0.023
same,glycan array binding signal (z-score),[12],0.039
same,glycan array binding signal (z-score),[13],-0.241
same,glycan array binding signal (z-score),[14],-0.316
same,glycan array binding signal (z-score),[15],0.053
same,glycan array binding signal (z-score),[16],0.019
same,glycan array binding signal (z-score),[17],-0.015
same,glycan array binding signal (z-score),[18],0.021
same,glycan array binding signal (z-score),[19],-0.066
same,glycan array binding signal (z-score),[20],-0.058
same,glycan array binding signal (z-score),[21],-0.132
same,glycan array binding signal (z-score),[22],0.117
same,glycan array binding signal (z-score),[23],-0.141
same,glycan array binding signal (z-score),[24],-0.193
same,glycan array binding signal (z-score),[25],-0.189
same,glycan array binding signal (z-score),[26],-0.111
same,glycan array binding signal (z-score),[27],-0.089
same,glycan array binding signal (z-score),Gal(b1-6)Gal,-0.004
same,glycan array binding signal (z-score),Gal3S(b1-3)GalNAc,-0.317
same,glycan array binding signal (z-score),Gal3S(b1-3)GlcNAc,-0.115
same,glycan array binding signal (z-score),[28],-0.169
same,glycan array binding signal (z-score),Gal3S(b1-4)Glc,0.179
same,glycan array binding signal (z-score),Gal3S(b1-4)Glc6S,0.798
same,glycan array binding signal (z-score),Gal3S(b1-4)GlcNAc,0.036
same,glycan array binding signal (z-score),Gal3S(b1-4)GlcNAc6S,-0.115
same,glycan array binding signal (z-score),[29],-0.147
same,glycan array binding signal (z-score),[30],-0.009
same,glycan array binding signal (z-score),Gal3S4S(b1-4)GlcNAc,-0.133
same,glycan array binding signal (z-score),Gal3S6S(b1-4)GlcNAc,-0.001
same,glycan array binding signal (z-score),Gal3S6S(b1-4)GlcNAc6S,0.149
same,glycan array binding signal (z-score),Gal4S(b1-4)GlcNAc,0.051
same,glycan array binding signal (z-score),Gal4S6S(b1-4)GlcNAc,-0.099
same,glycan array binding signal (z-score),Gal6S(b1-3)GlcNAc,0.147
same,glycan array binding signal (z-score),Gal6S(b1-3)GlcNAc6S,-0.183
same,glycan array binding signal (z-score),Gal6S(b1-4)Glc,-0.025
